This sample is rich in variants without activity.
B1: tRNA (parent)
chain: CUCUCGGUAGCCAAGUUGGUUUAAGGCGCAAGACUUUAAUUUAUCACUACGAAAUCUUGAGAUCGGGCGUUCGACUCGCCCCCGGGAGAUUUUUUCCUCGAGCAA

Variants of: B1
Test: nonsense suppression (GFP-seq) (ratio to wild type); higher = more function; SUP4oc tRNA, yeast GFP reporter sort-seq
Summary of the method: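 Yeast were grown in raffinose/galactose medium with 80 mg/L adenine, each strain bearing a genome-integrated ochre-suppressor tRNA variant from a ~3% random-mutation library, a galactose-driven GFP ochre reporter, and RFP. After sorting into GFP/RFP bins, every bin was sequenced on an Illumina platform at phred ≥30. The GFPSEQ value, a measure of nonsense suppression, is the weighted bin median GFP/RFP relative to the unmutated parent tRNA, using each variant's estimated cell share per bin as the weight. Only variants with ≥100 reads and ≥30 cells were included.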

Variant | nonsense suppression
U63G U70A A74G | ≤ 0.026
U63G U70C C75U | 0.099
U63G U76C | 0.0764
C64A A74G | ≤ 0.026
C64A A87U | ≤ 0.026
C64A A89C | ≤ 0.026
C64A A89G | ≤ 0.026
C64A C68U C75A | ≤ 0.026
C64A C72U A87G | ≤ 0.026
C64A C80U | ≤ 0.026
C64A G65U | ≤ 0.026
C64A G65U G85C | ≤ 0.026
C64A G69U | ≤ 0.026
C64A G88A | ≤ 0.026
C64A U76A | ≤ 0.026
C64G A87U | ≤ 0.026
C64G C72G G73U | ≤ 0.026
C64G C82A | ≤ 0.026
C64G G67C | ≤ 0.026
C64G G67C C81G | ≤ 0.026
C64G G67C G85C | ≤ 0.026

Variant | nonsense suppression
C64G G69A U70G | ≤ 0.026
C64G G84A G85A | ≤ 0.026
C64G U70C G84U | ≤ 0.026
C64U C79G | ≤ 0.026
C64U C82A | ≤ 0.026
C64U G67A G85C | ≤ 0.026
C64U G73A A89G | ≤ 0.026
C64U G78U C80U | ≤ 0.026
C64U G85U A87G | ≤ 0.026
C64U G88C | ≤ 0.026
C64U U70C | ≤ 0.026
G65A | ≤ 0.026
G65A A87C | ≤ 0.026
G65A A87G | ≤ 0.026
G65A A87U | ≤ 0.026
G65A C68A | ≤ 0.026
G65A C72A | ≤ 0.026
G65A C79A | ≤ 0.026
G65A C82A | ≤ 0.026
G65A G67A | ≤ 0.026
G65A G73C | ≤ 0.026

Variant | nonsense suppression
G65A G78C | ≤ 0.026
G65A G84U | ≤ 0.026
G65A G88U | ≤ 0.026
G65A U70G G84U | ≤ 0.026
G65C | ≤ 0.026
G65C A87G | ≤ 0.026
G65C A89C | ≤ 0.026
G65C C75A G88C | ≤ 0.026
G65C C79A G88A | ≤ 0.026
G65C C79U | ≤ 0.026
G65C C80G | ≤ 0.026
G65C C81A | ≤ 0.026
G65C C83G | ≤ 0.026
G65C G66A C72U A74G C75G | ≤ 0.026
G65C G69A | ≤ 0.026
G65C G73C C75A | ≤ 0.026
G65C G73C C77A | ≤ 0.026
G65C G73U C81A | ≤ 0.026
G65C G78A C83A G85A | ≤ 0.026
G65C G84C | ≤ 0.026
G65C G84U | ≤ 0.026

Variant | nonsense suppression
G65C G85A | ≤ 0.026
G65C G85A A87C | ≤ 0.026
G65C G85U | ≤ 0.026
G65C U70C U71G | ≤ 0.026
G65C U71A | ≤ 0.026
G65U | ≤ 0.026
G65U C81A C82A | ≤ 0.026
G65U C82U | ≤ 0.026
G65U C83A | ≤ 0.026
G65U G66C | ≤ 0.026
G65U G67A | ≤ 0.026
G65U G85A | ≤ 0.026
G65U G86A | ≤ 0.026
G65U U70C G78A | ≤ 0.026
G65U U71G G84A | ≤ 0.026
G66A | ≤ 0.026
G66A C68A | ≤ 0.026
G66A C68A G73U A87C | ≤ 0.026
G66A C77A | ≤ 0.026
G66A C79G | ≤ 0.026
